# Publication PMC4336329 (PLoS ONE, 2015)
# About 14,000 (4.5%) of roughly 310,000 compounds showed an effect of 50% or more. The effect is printed as a negative number. This is one part of the list.
# Target: human ether-à-go-go-related gene (hERG) potassium channel (human, UniProt Q12809)
# Assay: primary screen, population patch clamp on CHO cells stably expressing hERG
# 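Further: peak tail current of the secondary pulse compared with the same well before compound.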
# human ether-à-go-go-related gene (hERG) potassium channel, sequence (Q12809 whole entry, looked up): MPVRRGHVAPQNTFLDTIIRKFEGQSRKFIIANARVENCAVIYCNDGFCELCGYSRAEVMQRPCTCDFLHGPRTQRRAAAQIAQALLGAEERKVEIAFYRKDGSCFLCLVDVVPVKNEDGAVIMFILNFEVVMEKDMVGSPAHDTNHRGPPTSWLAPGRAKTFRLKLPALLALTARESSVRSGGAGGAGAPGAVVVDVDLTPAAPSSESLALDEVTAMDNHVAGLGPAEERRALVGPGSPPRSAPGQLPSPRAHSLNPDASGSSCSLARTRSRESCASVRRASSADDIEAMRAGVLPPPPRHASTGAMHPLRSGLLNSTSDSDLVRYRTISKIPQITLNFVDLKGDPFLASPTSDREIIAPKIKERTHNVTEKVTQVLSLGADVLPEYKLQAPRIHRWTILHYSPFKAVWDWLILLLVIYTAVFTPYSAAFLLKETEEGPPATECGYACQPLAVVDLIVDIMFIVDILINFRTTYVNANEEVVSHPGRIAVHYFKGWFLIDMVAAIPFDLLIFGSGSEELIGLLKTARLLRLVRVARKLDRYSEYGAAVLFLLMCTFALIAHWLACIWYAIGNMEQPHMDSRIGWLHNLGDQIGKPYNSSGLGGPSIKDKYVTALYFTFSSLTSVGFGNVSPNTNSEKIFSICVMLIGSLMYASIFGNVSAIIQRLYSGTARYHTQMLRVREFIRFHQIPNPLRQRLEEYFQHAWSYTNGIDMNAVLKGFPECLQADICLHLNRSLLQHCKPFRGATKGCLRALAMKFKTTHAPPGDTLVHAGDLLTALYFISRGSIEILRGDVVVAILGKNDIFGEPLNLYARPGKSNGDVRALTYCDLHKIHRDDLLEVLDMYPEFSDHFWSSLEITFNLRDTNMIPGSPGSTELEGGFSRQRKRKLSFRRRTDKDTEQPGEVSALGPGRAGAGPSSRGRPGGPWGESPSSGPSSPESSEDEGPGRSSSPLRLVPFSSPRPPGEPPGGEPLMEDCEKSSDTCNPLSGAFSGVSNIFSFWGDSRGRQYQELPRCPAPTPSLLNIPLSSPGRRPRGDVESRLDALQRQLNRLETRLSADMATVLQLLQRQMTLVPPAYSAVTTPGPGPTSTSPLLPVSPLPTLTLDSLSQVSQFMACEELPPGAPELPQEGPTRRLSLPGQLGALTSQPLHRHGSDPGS
row,Structure (SMILES),"hERG current change (%, negative = inhibition) at 10uM"
1,Cc1ccc(C)c(-n2c(-c3ccc4c(c3)OCO4)n[nH]c2=S)c1,6.65%
2,O=C(NN1C(=O)C2C3C=CC(C3)C2C1=O)C(O)c1ccccc1 (stereo not shown),12.4%
3,Cc1cc(NC(=O)CN2C(=O)/C(=C/c3ccccc3F)SC2=S)no1,9%
4,O=C(Oc1cccc(NC(=O)c2ccco2)c1)c1cccc(S(=O)(=O)N2CCCC2)c1,-30.8%
5,O=C(NCCCN1CCCC1)c1ccc(CS(=O)(=O)c2ccc(Br)cc2)o1,-16.7%
6,c1ccc(-c2ccccc2-c2nc(-c3cccnc3)no2)cc1,-2.34%
7,COc1cc(OC)c(C=O)c(OC(=O)N(C)C)c1,3.32%
8,CC(C)NC(=O)CCN1C(=O)c2ccccc2Sc2ncccc21,-1.32%
9,COC(=O)[C@@H]1C[C@@]2(O)[C@@H](O)[C@@H](O)[C@@H](O)C[C@H]2N1Cc1ccc(C)s1,18.8%
10,O=C(Nc1ccc(N2CCCCC2)cc1)c1ccc(F)cc1,15.7%
11,S=C1N(c2ccccc2)C(c2ccccc2)N2CCCN12 (stereo not shown),3.73%
12,Cc1ccccc1CC(=O)NC1CCCCCC1,19.1%
13,O=C(Nc1ccc(F)cc1F)C1CC(=O)N(Cc2ccccc2)C1 (stereo not shown),-3.13%
14,COc1cccc(N(CC(=O)NCCSc2ccccn2)S(=O)(=O)c2ccccc2)c1,-20.5%
15,COc1ccc(CCn2nnnc2C(c2ccc(Cl)cc2)N2CCN(C)CC2)cc1OC.Cl (stereo not shown),-11.6%
16,COc1ccc(CNC(=O)c2ccc(=O)oc2)cc1OC,10.3%
17,CCc1ccc(C(=O)NNc2cc(Cl)cc(Cl)c2)cc1,7%
18,CCN(CC(=O)Nc1c(F)cccc1F)C(=O)CCCc1cccs1,-15.4%
19,Cc1[nH]c2ccccc2c1C(=O)CSc1ccccn1,-7.42%
20,COc1cc2c3c(c1)/C(=C1/SC(NC(C)=O)=NC1=O)C(=O)N3C(C)(C)C=C2C,-1.47%
21,CC(=O)Nc1ccc(S(=O)(=O)NCCC(=O)Nc2cc(C)ccn2)cc1,7.68%
22,Cc1cc(C)c(NC(=O)C2CC(=O)N(Cc3ccccc3)C2)c(C)c1 (stereo not shown),8.57%

row,Structure (SMILES),"hERG current change (%, negative = inhibition) at 10uM"
1,CSc1cccc(NC(=O)CN(c2ccc(C)cc2C)S(C)(=O)=O)c1,-7.15%
2,Cc1ccc2[nH]c3nc(SCC#N)nnc3c2c1,18.8%
3,COc1cccc(CN2CCNC(=O)C2CC(=O)N(C)C2CCOCC2)c1OC (stereo not shown),8.49%
4,Nc1nc(-c2ccc([N+](=O)[O-])cc2)c(C(=O)Nc2ccc(Cl)cc2)s1,12.4%
5,CCCSc1nc(=S)n(Cc2ccccc2)c(C)c1C(C)=O,-25.3%
6,c1ccc(C2CCCN(Cc3nc(CC4CC4)no3)CC2)cc1 (stereo not shown),2.97%
7,COc1ccc(N2CC(NS(=O)(=O)c3ccc4ccccc4c3)CC2=O)cc1 (stereo not shown),0.699%
8,Nc1ccc2nc3c(=O)n(C4CCCCC4)c(=O)[nH]c3nc2c1,-0.914%
9,O=c1[nH]n2cc(-n3cc([N+](=O)[O-])cn3)cnc2c1Br,10.6%
10,O=C(Cn1nc(C(=O)O)c2ccccc2c1=O)Nc1ccc(F)cc1F,11.8%
11,O=S(=O)(Nc1nc2ccccc2nc1Cl)c1ccc2c(c1)OCCO2,6.88%
12,COc1ccc(/C=N/OCC(=O)N(Cc2ccc(OC)cc2)c2ccccc2C(=O)O)cc1,1.64%
13,Cc1ccc(NC(=O)c2ccco2)c(NC(=O)COc2ccccc2)c1,-19.6%
14,CC(C)c1ccc(CNCc2ccccc2)cc1.Cl,-25.2%
15,Cc1ccc(/C=C2\Oc3cc(OCC(=O)NN)ccc3C2=O)o1,4.58%
16,Cc1cc(C)cc(OCC(=O)Nc2ccccc2N2CCCCC2)c1,-0.491%
17,O=C(c1cccc(Cl)c1)N1CCC(=O)N(C(COCc2ccccc2)Cc2ccccc2)CC1 (stereo not shown),-51.9%
18,COc1cccc(C2C(C(N)=O)=C(C)Nc3nc(-c4cccc(Cl)c4)nn32)c1 (stereo not shown),-20.2%
19,CSc1ccccc1C(=O)C1CCCN(Cc2ccn[nH]2)C1 (stereo not shown),-8.34%
20,CCC(=O)Nc1ccc(C(=O)NNC(=O)C2CCCCC2)cc1,2.13%
21,CCN(CCO)Cc1csc2ccc(Cl)cc12.Cl,-4.52%
22,Cc1nn(Cc2ccc(Cl)cc2Cl)c(Cl)c1/C=N/NC(=O)CNc1cccc(C(F)(F)F)c1,9.72%

row,Structure (SMILES),"hERG current change (%, negative = inhibition) at 10uM"
1,Cc1c(C(=O)Oc2ccc(-c3cnc4ccccc4n3)cc2)cccc1[N+](=O)[O-],18.2%
2,COC(=O)C1=C(O)C(C(=O)OC)C(c2ccc(C)cc2)C(C#N)(C#N)C1c1ccc(C)cc1 (stereo not shown),1.83%
3,O=C(CN1CCN(c2ccc(F)cc2)CC1)N1N=CCC1c1ccccc1 (stereo not shown),-13.3%
4,O=C(NC1=NCCS1)c1ccccc1OCc1ccc(F)cc1,17.3%
5,CCOC(=O)C1CCCN(C(=O)c2cc(S(=O)(=O)Nc3ccccc3OC)ccc2C)C1 (stereo not shown),-13.9%
6,CCc1ccc(NC(=O)c2[nH]c(C)c(C(C)=O)c2C)cc1,-1.42%
7,Cc1ccc(NC(=S)N2CCN(Cc3ccccc3)CC2)cc1,15.6%
8,Cc1ccc(NC(=O)c2ccc(-n3cncn3)c([N+](=O)[O-])c2)cc1,-17.9%
9,CN(c1ccc(C(=O)NCCCn2ccnc2)cc1)S(C)(=O)=O,6.71%
10,FC(F)(F)c1ccccc1-n1c(CN2CCCCC2)n[nH]c1=S,-27.4%
11,Cc1ccccc1-n1nnnc1SCC(=O)N(C)C1CCS(=O)(=O)C1 (stereo not shown),16.4%
12,CCOc1ccc(NC2=NCC(=O)N2Cc2cccs2)cc1.Cl,-1.9%
13,O=C(N/N=C/c1cc(Cl)ccc1O)C(=O)Nc1ccccc1OC(F)(F)C(F)F,12%
14,O=C(Nc1cc(Cl)ccc1-n1cncn1)c1cc(F)cc(F)c1,-10.4%
15,Cn1cccc1-c1cc(C(=O)N/N=C/c2cccc(O)c2)[nH]n1,-7.31%
16,O=C(CSCc1ccc(Cl)cc1)N1CCN(Cc2ccc3c(c2)OCO3)CC1,-48.2%
17,Cc1ccc(NC2=C/C(=N/S(=O)(=O)c3cccs3)c3ccccc3C2=O)cc1,4.44%
18,Cc1cc(C)nc(N(C#N)C(C)C(=O)N(C)C)n1 (stereo not shown),4.74%
19,COCCCNC(=S)N1CCN(C)CC1,-28.4%
20,COc1ccc(C2C3=C(CCCC3=O)Nc3nc(SCc4ccc(C(=O)O)cc4)nn32)cc1OC (stereo not shown),-3.79%
21,COc1ccc(C(CNC(=O)c2ccc(C)o2)N2CCOCC2)cc1 (stereo not shown),-5.54%
22,COc1cccc(CNC(=O)COC(=O)c2cc([N+](=O)[O-])ccc2N2CCCC2)c1,-56.9%

row,Structure (SMILES),"hERG current change (%, negative = inhibition) at 10uM"
1,O=C(Cc1ccc(F)cc1)N1CCN(c2ccc([N+](=O)[O-])cc2)CC1,-69.5%
2,Cc1c(CCOC(=O)C2C3CC4CC(C3)CC2C4)sc[n+]1CC(=O)c1ccc(Br)cc1.[Br-] (stereo not shown),-31.4%
3,COCCCNC(=S)N/N=C/c1ccc2c(c1)OCO2,4.04%
4,Cc1cc(C)n2nc(/C(C#N)=C/c3ccccn3)c(C#N)c2n1,29%
5,Cc1cc(NS(=O)(=O)c2ccc(NC(=O)c3ccc(Br)o3)cc2)nc(C)n1,19.9%
6,CCn1c(Cn2nnc(-c3ccccc3)n2)nnc1SCC(=O)Nc1ccc(N(C)C)cc1,19.1%
7,O=C(Nc1c(C(=O)N2CCCCC2)cnn1-c1ccccc1)c1ccccc1F,19%
8,COc1cc2c(cc1OC)-c1nnnn1C(C)(C)C2,3.44%
9,Cc1cc(NC(=O)c2cc(-c3ccccn3)nc3ccc(Br)cc23)no1,24.9%
10,Cc1c(OCC(=O)C(C)(C)C)ccc2c3c(c(=O)oc12)CCCC3,13.8%
11,Cc1ccccc1NC(=O)Cn1cccc1,7.2%
12,O=C(CNC(=O)c1ccc(Br)o1)NNC(=O)c1ccccc1O,-2.55%
13,O=C(c1ccco1)N1CCN(C(=O)N2c3ccccc3Sc3ccccc32)CC1,-16.4%
14,CCCCS(=O)(=O)/C=C\C1C2C=CC(C2)C1S(=O)(=O)CCCC (stereo not shown),-14.5%
15,CC1CCc2nc(NC(=O)C3CCCO3)sc2C1 (stereo not shown),-3.97%
16,O=C1OCCC1Sc1nnc(-c2ccco2)n1-c1ccccc1 (stereo not shown),15.8%
17,CC(C)(C)C(=O)NCCN1CCN(C(=O)C(C)(C)C)CC1,-14.7%
18,CSc1nnc(Cc2sc(-c3ccccc3)nc2-c2ccccc2)o1,12.4%
19,COc1ccc(/C=C(/NC(=O)c2ccc(OC)cc2)C(=O)NCCc2c[nH]c3ccccc23)cc1,-28.8%
20,COC(=O)c1[nH]c2ccc(F)cc2c1NS(=O)(=O)c1ccc(F)c(C)c1,0.344%
21,COc1ccccc1C(=O)NC(C)c1nc2ccccc2[nH]1 (stereo not shown),17.9%
22,CCN(CC)CCNC(=O)c1cc(-c2ccc(Br)s2)nc2ccccc12,-9.2%
